Measurements: PubChem BioAssay AID1347073 (National Center for Advancing Translational Sciences (NCATS), 2019)
About 200 (0.44%) of roughly 45,000 compounds were called active. Not shown: some 7% with an inconclusive outcome. Calls follow the shape of the dose curve; as a rule, active = well fitted activation curve with a large enough effect; inconclusive = small, poorly fitted or top-dose-only effect; inactive = no such curve, though single readings can be large or run the other way. The list shows a part of the results.

Assay: qHTS of TDP-43 Inhibitors: NCGC Sytravon Library Screen; also: 0% is about no effect; nearly all actives have a fitted effect of over 55% in size
Conditions: yeast TDP-43 toxicity rescue, BacTiter-Glo growth, 24 h; series mostly up to 46.1 µM; growth rescue (activation): at the top concentration
How it was run: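 TDP-43-expressing yeast, pregrown in raffinose, seeded at OD600 0.02 in galactose medium with compound for 24 hr at 30 deg C. Growth read by BacTiter-Glo luminescence, so rescue of toxicity appears as activation.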

| Structure (SMILES) | growth rescue (activation) |
| --- | --- |
| CCC(=O)c1ccc(OCC(=O)Nc2ccc3c(c2)OCCO3)cc1 | inactive: 2.34% |
| CCCCCC1CC(=O)N(Cc2ccc(Cl)cc2)C(=O)N1 (stereo not given) | inactive: 24.9% |
| O=c1c2oc3ccccc3c2[nH]c(=S)n1-c1ccc(F)cc1 | inactive: 21.4% |
| O=C(CCC(=O)N1CCN(S(=O)(=O)c2ccc(Cl)cc2)CC1)Nc1ccc2ccccc2c1 | inactive: 10% |
| O=C(c1cccc(S(=O)(=O)N2CCc3ccccc32)c1)N1CCN(CCO)CC1 | inactive: 8.14% |
| Cc1ccc(NC(=O)CN(C)C(=O)CSc2nnc(C)s2)cc1 | inactive: -1.48% |
| Cc1ccccc1S(=O)(=O)NC(=O)C1(C)CCN1C(=O)Cc1ccccc1Cl (stereo not given) | inactive: -0.761% |
| CCc1ccc(NC(=O)c2ccc(F)c(S(=O)(=O)N(CC)c3ccccc3)c2)cc1 | inactive: 21.5% |
| N#C/C(=C\c1ccncc1)c1nc2ccccc2[nH]1 | inactive: 3.15% |
| CC(=O)Nc1ccc(S(=O)(=O)N2CCN(c3nnnn3-c3ccccc3)CC2)cc1 | inactive: 10.5% |
| COCCn1nnnc1C(c1cccc(OC)c1OC)N1CCN(C(=O)c2ccco2)CC1 (stereo not given) | inactive: -0.799% |
| Cc1cc(C)c(C)c(S(=O)(=O)N(C)C2CCN(C)CC2)c1C | inactive: 4.58% |
| COc1ccc(CCNC(=O)COC(=O)/C=C/c2cc(OC)c(OC)c(OC)c2)cc1OC | inactive: 4.9% |
| COc1ccc(C(=O)CNc2cccc(F)c2)cc1 | inactive: 17.9% |
| CC1CCCN(C(=O)CSc2ncccn2)C1 (stereo not given) | inactive: 10.3% |
| CCCCn1c(N)c(NCC)c(=O)[nH]c1=O | inactive: 8.4% |
| COc1ccc(S(=O)(=O)N2CCOCC2)cc1NC(=O)c1ccc(=O)[nH]c1 | inactive: 9.66% |
| CCc1ccc(-c2nnn(CCC#N)n2)cc1 | inactive: 22.3% |
| CC(C)(C)c1ccc(-c2nc(S(=O)(=O)c3ccccc3)c(N3CCOCC3)o2)cc1 | inactive: 2.9% |
| CC1CCCCN1Cc1c(O)ccc2c(=O)c(-c3ccccc3)coc12 (stereo not given) | inactive: 7.12% |
| N#Cc1ccc(OCC(=O)OCC(=O)c2ccc[nH]2)cc1 | inactive: 24.2% |
| CCCCC(NC(=O)COc1cc2c(c3oc(=O)cc(C)c13)CCC(C)(C)O2)C(=O)O (stereo not given) | inactive: -26.2% |
| O=C(OCC(=O)N1CCOCC1)c1ccc(Cl)cc1[N+](=O)[O-] | inactive: 0.15% |
| C=CCn1c(-c2cccc(OCC)c2)n[nH]c1=S | inactive: 22.7% |
| Cc1nccn1CC(O)COc1ccccc1 (stereo not given) | inactive: -3.86% |
| COc1ccc(-c2cc(C(=O)N3CCN(c4ccc(F)cc4)CC3)no2)cc1OC | inactive: 11.8% |
| O=C(O)c1ccc(-c2nc3ccccc3[nH]2)cc1 | inactive: -2.05% |
| O=S(=O)(c1ccccc1F)N1CCC(c2nc3ccccc3[nH]2)CC1 | inactive: -1.9% |

| Structure (SMILES) | growth rescue (activation) |
| --- | --- |
| CN(C)S(=O)(=O)c1ccc2c(c1)C(=NO)c1cc(S(=O)(=O)N(C)C)ccc1-2 | inactive: -2.63% |
| O=C(NC12CC3CC(CC(C3)C1)C2)N1CC2Cc3cccc(=O)n3C(C2)C1 (stereo not given) | inactive: 5.17% |
| CCCCS(=O)(=O)Nc1ccc(N2CCOCC2)c(S(=O)(=O)N2CCOCC2)c1 | inactive: 10.6% |
| COc1ccc(NS(=O)(=O)c2cc([N+](=O)[O-])ccc2N/N=C/c2c(C)[nH]c3ccccc23)cc1 | inactive: 23.3% |
| CC(C)(CN1CCN(C(c2ccccc2)c2ccccc2)CC1)NS(=O)(=O)c1ccccc1 | inactive: 28.7% |
| Nc1c(N(CCO)C(=O)/C=C/c2ccco2)c(=O)[nH]c(=O)n1Cc1ccccc1 | inactive: 9.79% |
| Cc1cccc(NCC(=O)N/N=C\c2ccc[nH]2)c1 | inactive: 10.5% |
| CCN1CCN(CCCOc2ccccc2-c2ccccc2)CC1 | inactive: -11.5% |
| COc1ccc(OCCC(=O)N2CCCCC2)cc1 | inactive: 7.03% |
| O=C(CN(Cc1ccccc1)S(=O)(=O)c1ccc(F)cc1)NCc1ccccn1 | inactive: -7.03% |
| CN(CCc1ccccn1)C(=O)CCC1CCCN(C(=O)c2c3c(nn2C)CCCC3)C1 (stereo not given) | inactive: 5.49% |
| Cc1nn(CCC(=O)N2CCN(S(=O)(=O)c3ccc(Cl)cc3)CC2)c(C)c1C | inactive: 11.4% |
| CCOC(=O)CSc1n[nH]c(-c2cccnc2)n1 | inactive: 12.1% |
| COc1ccc(CN2C[C@@H](CO)O[C@@H](n3cnc4c(NCCN(C)C)ncnc43)C2)cc1 | inactive: -4.12% |
| CC(C)(C)c1ccc(S(=O)(=O)Nc2ccc3c(c2)COC3=O)cc1 | inactive: -21.5% |
| COc1ccc(/C=C2\CCc3ccccc3C2=O)c(OC)c1OC | inactive: 29.9% |
| O=c1cc(CN2CC(O)Cc3ccc4ccccc4c32)nc2sccn12 (stereo not given) | inactive: 4.71% |
| COc1ccc(CCNCC(O)COc2c(C)cccc2C)cc1OC (stereo not given) | inactive: -12.7% |
| Cc1ccc(OCc2n[nH]c(=S)n2-c2ccccc2)cc1C | inactive: 12.9% |
| Cc1cc(C)nc(NC(=O)c2ccc(Cl)cc2)n1 | inactive: 9.73% |
| N#Cc1ccc(C(=O)OCC(=O)N2CCCC2)cc1 | inactive: -7.7% |
| O=P(CCCO)(Cc1ccccc1)Cc1ccccc1 | inactive: -5.24% |
| COc1cccc(OCCOCCOc2ccc(C)cc2[N+](=O)[O-])c1 | inactive: 29.1% |
| Cc1ccc(-c2nc3ncccc3o2)cc1NC(=O)c1ccccc1Br | inactive: 7.95% |
| CCCNC(=O)C1(C)CCCN(Cc2cccc(C#N)c2)C1 (stereo not given) | inactive: 6.26% |
| NS(=O)(=O)c1ccc(CNC(=O)c2ccc(C(=O)c3ccccc3)cc2)cc1 | inactive: 13.5% |
| CN(c1cccc(NC(=O)c2ccc(C(C)(C)C)cc2)c1)S(C)(=O)=O | inactive: 5.55% |
